Measurements reported in the supplement of paper PMC8728848.
The list shows a part of the results.

How the values were obtained:
Experiment in all cases: glycan array binding signal (z-score within array); higher = stronger binding
Settings in all cases: glycan notation: IUPAC condensed, linker removed
[1] = target: Gal(a1-3)[Gal(a1-4)]Gal(b1-4)GlcNAc
Method in brief: (§1)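 Columns mapping to the same glycan were averaged after glycan names were converted to IUPAC-condensed notation. The data come from 3228 arrays in the Consortium for Functional Glycomics database, limited to those with an available protein sequence. Binding is reported as a within-array Z-score averaged across arrays of one protein sequence and across linkers.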

[2] = target: Gal(a1-4)Gal(b1-3)GlcNAc(b1-2)Man(a1-3)[Gal(a1-4)Gal(b1-3)GlcNAc(b1-2)Man(a1-6)]Man(b1-4)GlcNAc(b1-4)GlcNAc
Method in brief: as §1

Gal(a1-4)Gal(b1-4)Glc = target: Gal(a1-4)Gal(b1-4)Glc
Method in brief: as §1

Gal(a1-4)Gal(b1-4)GlcNAc = target: Gal(a1-4)Gal(b1-4)GlcNAc
Method in brief: as §1

[3] = target: Gal(a1-4)Gal(b1-4)GlcNAc(b1-2)Man(a1-3)[Gal(a1-4)Gal(b1-4)GlcNAc(b1-2)Man(a1-6)]Man(b1-4)GlcNAc(b1-4)GlcNAc
Method in brief: as §1

[4] = target: Gal(a1-4)Gal(b1-4)GlcNAc(b1-3)Gal(b1-4)Glc
Method in brief: as §1

Gal(a1-4)GlcNAc = target: Gal(a1-4)GlcNAc
Method in brief: as §1

Gal(a1-6)Glc = target: Gal(a1-6)Glc
Method in brief: as §1

Gal(b1-2)Gal = target: Gal(b1-2)Gal
Method in brief: as §1

Gal(b1-3)Gal = target: Gal(b1-3)Gal
Method in brief: as §1

Gal(b1-3)Gal(b1-4)GlcNAc = target: Gal(b1-3)Gal(b1-4)GlcNAc
Method in brief: as §1

Gal(b1-3)GalNAc = target: Gal(b1-3)GalNAc
Method in brief: as §1

[5] = target: Gal(b1-3)GalNAc(a1-3)[Fuc(a1-2)]Gal(b1-4)Glc
Method in brief: as §1

[6] = target: Gal(b1-3)GalNAc(a1-3)[Fuc(a1-2)]Gal(b1-4)GlcNAc
Method in brief: as §1

Gal(b1-3)GalNAc(b1-3)Gal = target: Gal(b1-3)GalNAc(b1-3)Gal
Method in brief: as §1

[7] = target: Gal(b1-3)GalNAc(b1-3)Gal(a1-4)Gal(b1-4)Glc
Method in brief: as §1

[8] = target: Gal(b1-3)GalNAc(b1-4)Gal(b1-4)Glc
Method in brief: as §1

[9] = target: Gal(b1-3)GalNAc(b1-4)[Neu5Ac(a2-3)]Gal(b1-4)Glc
Method in brief: as §1

Gal(b1-3)GlcNAc = target: Gal(b1-3)GlcNAc
Method in brief: as §1

[10] = target: Gal(b1-3)GlcNAc(a1-3)Gal(b1-4)GlcNAc
Method in brief: as §1

[11] = target: Gal(b1-3)GlcNAc(a1-6)Gal(b1-4)GlcNAc
Method in brief: as §1

Gal(b1-3)GlcNAc(b1-2)Man = target: Gal(b1-3)GlcNAc(b1-2)Man
Method in brief: as §1

[12] = target: Gal(b1-3)GlcNAc(b1-2)Man(a1-3)[Gal(b1-3)GlcNAc(b1-2)Man(a1-6)]Man(b1-4)GlcNAc(b1-4)GlcNAc
Method in brief: as §1

[13] = target: Gal(b1-3)GlcNAc(b1-2)Man(a1-3)[Gal(b1-3)GlcNAc(b1-2)Man(a1-6)]Man(b1-4)GlcNAc(b1-4)[Fuc(a1-6)]GlcNAc
Method in brief: as §1

[14] = target: Gal(b1-3)GlcNAc(b1-2)Man(a1-3)[GlcNAc(b1-4)][Gal(b1-3)GlcNAc(b1-2)Man(a1-6)]Man(b1-4)GlcNAc(b1-4)GlcNAc
Method in brief: as §1

[15] = target: Gal(b1-3)GlcNAc(b1-2)[Gal(b1-3)GlcNAc(b1-6)]Man(a1-6)[Gal(b1-3)GlcNAc(b1-2)Man(a1-3)]Man(b1-4)GlcNAc(b1-4)GlcNAc
Method in brief: as §1

[16] = target: Gal(b1-3)GlcNAc(b1-3)Gal(b1-3)GlcNAc
Method in brief: as §1

[17] = target: Gal(b1-3)GlcNAc(b1-3)Gal(b1-4)Glc
Method in brief: as §1

[18] = target: Gal(b1-3)GlcNAc(b1-3)Gal(b1-4)GlcNAc
Method in brief: as §1

[19] = target: Gal(b1-3)GlcNAc(b1-3)Gal(b1-4)GlcNAc(b1-2)Man(a1-3)[Gal(b1-3)GlcNAc(b1-3)Gal(b1-4)GlcNAc(b1-2)Man(a1-6)]Man(b1-4)GlcNAc(b1-4)GlcNAc
Method in brief: as §1

[20] = target: Gal(b1-3)GlcNAc(b1-3)Gal(b1-4)GlcNAc(b1-2)[Gal(b1-3)GlcNAc(b1-3)Gal(b1-4)GlcNAc(b1-6)]Man(a1-6)[Gal(b1-3)GlcNAc(b1-3)Gal(b1-4)GlcNAc(b1-2)Man(a1-3)]Man(b1-4)GlcNAc(b1-4)[Fuc(a1-6)]GlcNAc
Method in brief: as §1

[21] = target: Gal(b1-3)GlcNAc(b1-3)Gal(b1-4)GlcNAc(b1-3)Gal(b1-4)GlcNAc(b1-2)[Gal(b1-3)GlcNAc(b1-3)Gal(b1-4)GlcNAc(b1-3)Gal(b1-4)GlcNAc(b1-6)]Man(a1-6)[Gal(b1-3)GlcNAc(b1-3)Gal(b1-4)GlcNAc(b1-3)Gal(b1-4)GlcNAc(b1-2)Man(a1-3)]Man(b1-4)GlcNAc(b1-4)[Fuc(a1-6)]GlcNAc
Method in brief: as §1

[22] = target: Gal(b1-3)GlcNAc(b1-3)Gal(b1-4)GlcNAc(b1-6)[Gal(b1-3)GlcNAc(b1-3)]Gal(b1-4)Glc
Method in brief: as §1

[23] = target: Gal(b1-3)GlcNAc(b1-3)Gal(b1-4)[Fuc(a1-3)]GlcNAc
Method in brief: as §1

[24] = target: Gal(b1-3)GlcNAc(b1-3)Gal(b1-4)[Fuc(a1-3)]GlcNAc(b1-6)[Gal(b1-3)GlcNAc(b1-3)]Gal(b1-4)Glc
Method in brief: as §1

[25] = target: Gal(b1-3)GlcNAc(b1-3)GalNAc
Method in brief: as §1

[26] = target: Gal(b1-3)GlcNAc(b1-6)Gal(b1-4)GlcNAc
Method in brief: as §1

[27] = target: Gal(b1-3)GlcNAc(b1-6)GalNAc
Method in brief: as §1

B1: PX14375C-bth-509-28-509 (Bacteroides thetaiotaomicron) (protein)
chain: RSPQGQFTEDDNPNALVNGKIYNVYTMMRSFDITAGTPAIAIHYLRSEDSEKGSIPSDGSDVAEMYDDFLYTPTNGLLGSYWGKNYAIIYQCNDILDAIAEKETAGQTETEDIINKGEASFFRAYCYFNLVRAFGEVPLVTYKINDASEANIPKTTADKIYEQIDTDLKTAEESLPETWSTEYTGRLTWGAARSLHARTYMMRSDWDNMYKASTDVINKGLYNLKTPYNEIFTDDGENSGGSIFELQCTATAALPQSDVIGSQFCEVQGVRGAGQWDLGWGWHMATQLMADAYETGDPRKNATLLYFRKTDDEPITPENTNEPYGESPISPAMGAYFNKKAYTDPALRKEYTNKGFWVNIRLIRYSDVVLMAAEAANEKNIPGEAVDYLEMVRARARGTNTNILPKITTNDQGELREAIRHERRVELGLEPDRFYDLVRWGIASEVLHAAGKVNYQDKNALLPLPQSEIDKSKGVLVQNPDY
glycan array binding signal (z-score) [1]: 2.55 | glycan array binding signal (z-score) [2]: 0.917 | glycan array binding signal (z-score) (Gal(a1-4)Gal(b1-4)Glc): 0.081 | glycan array binding signal (z-score) (Gal(a1-4)Gal(b1-4)GlcNAc): 0.016 | glycan array binding signal (z-score) [3]: -0.374 | glycan array binding signal (z-score) [4]: -0.341 | glycan array binding signal (z-score) (Gal(a1-4)GlcNAc): -0.193 | glycan array binding signal (z-score) (Gal(a1-6)Glc): -0.3 | glycan array binding signal (z-score) (Gal(b1-2)Gal): -0.211 | glycan array binding signal (z-score) (Gal(b1-3)Gal): -0.237 | glycan array binding signal (z-score) (Gal(b1-3)Gal(b1-4)GlcNAc): -0.316 | glycan array binding signal (z-score) (Gal(b1-3)GalNAc): -0.361 | glycan array binding signal (z-score) [5]: -0.271 | glycan array binding signal (z-score) [6]: -0.448 | glycan array binding signal (z-score) (Gal(b1-3)GalNAc(b1-3)Gal): -0.286 | glycan array binding signal (z-score) [7]: -0.381 | glycan array binding signal (z-score) [8]: -0.393 | glycan array binding signal (z-score) [9]: -0.247 | glycan array binding signal (z-score) (Gal(b1-3)GlcNAc): -0.186 | glycan array binding signal (z-score) [10]: -0.414 | glycan array binding signal (z-score) [11]: 0.022 | glycan array binding signal (z-score) (Gal(b1-3)GlcNAc(b1-2)Man): -0.371 | glycan array binding signal (z-score) [12]: 1.89 | glycan array binding signal (z-score) [13]: -0.115 | glycan array binding signal (z-score) [14]: -0.222 | glycan array binding signal (z-score) [15]: -0.353 | glycan array binding signal (z-score) [16]: -0.361 | glycan array binding signal (z-score) [17]: -0.374 | glycan array binding signal (z-score) [18]: -0.144 | glycan array binding signal (z-score) [19]: -0.167 | glycan array binding signal (z-score) [20]: 0.234 | glycan array binding signal (z-score) [21]: 1.23 | glycan array binding signal (z-score) [22]: -0.124 | glycan array binding signal (z-score) [23]: -0.265 | glycan array binding signal (z-score) [24]: -0.581 | glycan array binding signal (z-score) [25]: 0.151 | glycan array binding signal (z-score) [26]: -0.342 | glycan array binding signal (z-score) [27]: 1.05
